Structures are written as SMILES. Several values for one entry are separate records, joined by “and”; a condition that tells them apart may be missing. Equal values may be shown once. Hit rate of the full screen: of about 48,000 compounds, about 120 (0.25%) were called active. Roughly 4% stayed inconclusive and do not appear here. Calls follow the shape of the dose curve; as a rule, active = well fitted activation curve with a large enough effect; inconclusive = small, poorly fitted or top-dose-only effect, or another doubt; inactive = no such curve, though single readings can be large or run the other way. This is one part of the list.

The nature of the assay: Primary qHTS for Identification of Small Molecule Activators of Huntingtin-Antisense Promoter Activity. Also: nearly all actives have a fitted effect of over 55% in size. The following applies: HEK293 HTT-AS promoter firefly luciferase reporter, 24 h. The essentials: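 HEK293 luciferase promoter-reporter cells (2,500/well) plated 24 h, then compounds added at up to 57.5 uM final for 24 h at 37 °C. Firefly luminescence by Dual-Glo, normalized to vehicle (0%) and zero RLU (-100%).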
(In general: qHTS replaces the single test concentration by a dilution series.)

The mark [1] stands for this setting: at 57.5 µM (top of the series) unless noted.

Consider `c1ccc2c(c1)Nc1ccccc1S2`, for which the activity change, positive = activation was inactive: -19.3% (at 57.5 µM (top of the series)) and inactive: -6.97% (at 116 µM (top of the series)). `COc1cc(CC(C)N)c(OC)cc1Br` (stereo not drawn): under setting [1], the activity change, positive = activation is inactive: -9.27% [at 116 µM]. For the molecule `CCC(CC)(CNC(=O)CCCO)c1cccc(OC)c1`, under setting [1], the activity change, positive = activation was inactive: -1.35%.

On to `CC(C)=C[C@@H]1[C@@H](C(=O)OCc2coc(Cc3ccccc3)c2)C1(C)C`, for which, under setting [1], the activity change, positive = activation is inactive: -10.2% [at 57.5 µM, percent change from vehicle, -100% = no light]. Consider `CCCN(CCC)CCc1c[nH]c2ccccc12`, for which the activity change, positive = activation under setting [1] was inactive: -16.3% [at 116 µM]. For `CN1CC[C@]23c4c5ccc(O)c4O[C@H]2[C@@H](O)C=C[C@H]3[C@H]1C5`, under setting [1], the activity change, positive = activation is inactive: -19.3% [at 116 µM].

As to `O=[N+]([O-])c1cc([N+](=O)[O-])c2ccccc2c1`, the activity change, positive = activation under setting [1] is inactive: -6.76% [at 116 µM]. As to `CC(C)(C)c1cc(C=C(C#N)C#N)cc(Br)c1O`, the activity change, positive = activation under setting [1] was inactive: -87.4%. The same measure, in the same setting: for `O=C(Nc1ccc2c(c1)OCO2)c1cccn(Cc2ccc(F)cc2)c1=O` the value was inactive: -4.54%.

As to `O=c1cccc2n1CC1CNC[C@H]2C1`, the activity change, positive = activation under setting [1] is inactive: 10.4%. `O=C1OC(c2ccc(O)c(S(=O)(=O)O)c2)(c2ccc(O)c(S(=O)(=O)O)c2)c2c(Br)c(Br)c(Br)c(Br)c21`: the activity change, positive = activation under setting [1] was inactive: 0.0002%. On to `NCC(CC(=O)O)c1ccc(Cl)cc1` (stereo not drawn), for which the activity change, positive = activation under setting [1] is inactive: -12.9% [at 0.74 µM]. On to `CN(C)[C@@H]1C(=O)C(C(N)=O)=C(O)[C@@]2(O)C(=O)C3=C(O)c4c(O)cccc4[C@@](C)(O)[C@H]3C[C@@H]12`, for which the activity change, positive = activation under setting [1] was inactive: -5.24% and inactive: -17.3%. On the same count and under the same terms, the result for `Cc1ccccc1Cn1cccc(C(=O)Nc2cc(Cl)ccc2C#N)c1=O` reads inactive: -14.3%; that for `Cn1c(=O)n(C)c2cc(CNCCc3ccccc3)ccc21`, inactive: -3.26%; that for `CC(NC(C)(C)C)C(=O)c1cccc(Cl)c1` (stereo not drawn), inactive: -0.19% and inactive: 4.76%. Consider `CCC(=O)N1CC(=O)Nc2ccc(C)cc2C1c1ccc(F)cc1` (stereo not drawn), for which, under setting [1], the activity change, positive = activation is inactive: -7.07% [at 57.5 µM, percent change from vehicle, -100% = no light].

Take `CCOc1ccc2nc(NC(=O)c3cccn(Cc4ccccc4C)c3=O)sc2c1`: the activity change, positive = activation under setting [1] is inactive: -6.68%. As to `Cc1cc(NC(=O)c2cccn(Cc3cccc([N+](=O)[O-])c3)c2=O)no1`, the activity change, positive = activation under setting [1] was inactive: -19.7% [at 57.5 µM, percent change from vehicle, -100% = no light].

As for `NCc1cccnc1`, the activity change, positive = activation under setting [1] is inactive: 1.3%. Take `COc1ccc(-c2nc(CN3C(=O)CN=C(c4ccccc4)c4ccccc43)c(C)o2)cc1OC`: under setting [1], the activity change, positive = activation is inactive: -15.2% [at 57.5 µM, percent change from vehicle, -100% = no light].

On to `CCc1ccc(OCC(=O)N2CCN(CCc3ccccn3)CC2)cc1`, for which, under setting [1], the activity change, positive = activation is inactive: 3.13% [at 11.5 µM].

Turning to `COc1ccccc1-n1c(/C=C/c2ccccc2)nc2ccccc2c1=O`, under setting [1], the activity change, positive = activation is inactive: 14.4% [at 57.5 µM, percent change from vehicle, -100% = no light]. As to `Cn1c(CCCC(=O)O)nc2cc(N(CCCl)CCCl)ccc21`, the activity change, positive = activation under setting [1] was inactive: -11.8% and inactive: -8.73%. Consider `O=C1CN=C(c2ccccc2)c2cc(Cl)ccc2N1Cc1ccc(Cl)cc1`, for which the activity change, positive = activation under setting [1] is inactive: -46.7%. Take `O=C(N[C@@H](COc1ccc2[nH]c(=O)[nH]c2c1)c1ccccc1)c1cccn(Cc2ccc(F)c(F)c2)c1=O`: the activity change, positive = activation under setting [1] was inactive: -34.5%. Still for that read-out and setting: for `NC(=O)c1cc([N+](=O)[O-])cc([N+](=O)[O-])c1` the value was inactive: -0.376%; for `C[C@@]12OC(=O)[C@]1([C@@H](O)[C@@H]1C=CCCC1)NC(=O)[C@H]2CCCl`, inactive: -60%. Regarding `O=C1CC[C@@]2(O)[C@H]3Cc4ccc(O)c5c4[C@@]2(CCN3CC2CC2)[C@H]1O5`, the activity change, positive = activation under setting [1] was inactive: 0.466% and inactive: 13.9%. On to `COc1ccc(-c2nn3c(=O)cc(CN4CCN(C(=O)COc5ccc(F)cc5)CC4)nc3s2)cc1`, for which, under setting [1], the activity change, positive = activation is inactive: -11.3% [at 57.5 µM, percent change from vehicle, -100% = no light].

In the case of `CCN(CC)CCc1c[nH]c2ccccc12`, under setting [1], the activity change, positive = activation is inactive: -14.7% [at 222 µM]. Still for that read-out and setting: the result for `CC(=O)OC1(c2ccccc2)CCN(CCc2ccccc2)CC1` reads inactive: -19.7% [at 116 µM]; that for `Oc1ccc2[nH]cc(CCCCN3CC=C(c4ccccc4)CC3)c2c1`, inactive: -24.6%. The same measure, in the same setting: for `Cc1oc(-c2ccc(Cl)cc2)nc1CN1C(=O)CN=C(c2ccccc2)c2cc(Cl)ccc21` the value was inactive: -14.7% [at 57.5 µM, percent change from vehicle, -100% = no light]. In the case of `COC1CC(=C(c2cccs2)c2cccs2)C[N+](C)(C)C1` (stereo not drawn), the activity change, positive = activation under setting [1] was inactive: -8.72%. Still for that read-out and setting: the result for `CN1CCN(C(=O)O[C@H]2c3nccnc3C(=O)N2c2ccc(Cl)cn2)CC1` reads inactive: -1.03% and inactive: -5.7%.

In the case of `Cc1ccc(NC(=O)CN2C(=O)CN=C(c3ccccc3)c3ccccc32)c(C)c1`, the activity change, positive = activation under setting [1] is inactive: -26.1% [at 57.5 µM, percent change from vehicle, -100% = no light]. `CCOP(=S)(OCC)O/N=C(\C#N)c1ccccc1`: the activity change, positive = activation under setting [1] is inactive: -6.47%. As for `C=CC(=O)NCNC(=O)C=C`, the activity change, positive = activation under setting [1] was inactive: 2.52% [at 116 µM]. `O=C(c1ccc2c(c1)N(Cc1ccc(F)cc1Cl)C(=O)c1ccccc1S2)N1CCC2(CC1)OCCO2`: the activity change, positive = activation under setting [1] is inactive: -29.6%.

As to `CC(Cc1ccccc1)NCCn1cnc2c1c(=O)n(C)c(=O)n2C` (stereo not drawn), the activity change, positive = activation under setting [1] was inactive: -14.2% [at 116 µM]. Turning to `COc1nn(CSP(=S)(OC)OC)c(=O)s1`, the activity change, positive = activation under setting [1] was inactive: -26.4% [at 116 µM]. For the molecule `CCCCc1nc2ccccc2c(=O)n1-c1cccc(OC)c1`, the activity change, positive = activation under setting [1] is inactive: -26.1%. Same read-out and setting: for `CC(C)NCC(O)c1ccc([N+](=O)[O-])cc1` (stereo not drawn) the value was inactive: -9.49%; for `N[C@@H]1C[C@H]1c1ccccc1`, inactive: 0.704%; for `Nc1c(C(=O)Nc2ccc(OC(F)(F)F)cc2)sc2nc3c(cc12)N1CCC3CC1`, inactive: -59.9%. `COc1cc(/C=C/c2nc3ccccc3c(=O)n2-c2ccc(Br)c(C)c2)ccc1O`: under setting [1], the activity change, positive = activation is inactive: -22%.

The values above are taken from PubChem BioAssay AID1508624 (National Center for Advancing Translational Sciences (NCATS), 2021).
